Out of some 280,000 compounds screened, about 100 (0.036%) were called active. The shares of active, inactive and inconclusive entries below differ from those in the screen. Calls come from the whole dose curve; as a rule, active = well fitted inhibition curve with a large enough effect in the signal ratio, with a control signal flat (not every such curve was filed as active); inconclusive = small, poorly fitted or top-dose-only effect, or effect the other way, or a change in a side signal; inactive = no such curve, though single readings can be large or run the other way; the % refers to the signal ratio. Potencies beside an inconclusive call are fits to weak or partial responses and may not hold up. A note “side channel” means that the fit belongs to a control or component signal, not to the main read-out.
What follows are compounds tested against Muscleblind-like protein 1 (Homo sapiens) (UniProt Q9NR56) (assay: qHTS Assay for Inhibitors of MBNL1-poly(CUG) RNA binding). Details: TR-FRET MBNL1-His/biotin-(CUG)12 binding, 665/545 ratio; activity change, negative = inhibition: at 57.5 µM (top of the series).
Method in brief: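 TR-FRET readout: Ex 340 nm, 665/545 nm emission ratio, normalized to buffer-only (basal) and MBNL1-(CUG)12 controls. Complex of MBNL1-His with Biotin-(CUG)12, compounds 92 nM–58 uM, incubated 60 min at room temperature.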
% is set by controls: 0 for no effect and ±100 for the full control effect; potency is the fitted concentration of half-maximal effect; tags give direction and shape of the fitted curve or compound fluorescence and quenching.

UniProt Q9NR56, sequence (Q9NR56 whole entry, looked up): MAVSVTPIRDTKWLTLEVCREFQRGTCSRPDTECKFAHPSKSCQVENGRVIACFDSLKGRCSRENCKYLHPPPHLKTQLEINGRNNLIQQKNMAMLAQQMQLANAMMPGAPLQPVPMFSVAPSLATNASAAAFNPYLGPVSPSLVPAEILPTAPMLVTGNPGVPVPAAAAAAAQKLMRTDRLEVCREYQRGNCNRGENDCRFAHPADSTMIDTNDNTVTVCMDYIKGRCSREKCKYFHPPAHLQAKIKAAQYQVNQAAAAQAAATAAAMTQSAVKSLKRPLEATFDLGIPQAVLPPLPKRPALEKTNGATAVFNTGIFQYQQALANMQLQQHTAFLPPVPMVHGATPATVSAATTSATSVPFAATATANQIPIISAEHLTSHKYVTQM

SMILES	Potency	activity change, negative = inhibition
O=C(CC1NCCN(Cc2ccccc2)C1=O)Nc1ccccc1 (stereo not given)	inconclusive: 0.794 µM [fluorescent, side channel, single point]	
O=C(NNC(=O)c1cccnc1)Nc1cccc2ccccc12	inconclusive: 17.8 µM [quencher, side channel, single point]	
O=C(O)CCCC(=O)Nc1ccc(Sc2ccc([N+](=O)[O-])cc2)cc1	inconclusive: 14.1 µM [quencher, side channel, partial curve]	
Cc1ccc2cccc(Oc3ncnc4scc(-c5ccc(Cl)cc5)c34)c2n1		inconclusive: 9.24% [phenotype inactive]
O=C(NC1CCN(Cc2ccccc2)CC1)c1cncc(Br)c1	inactive	
CCOC(=O)N1CCN(CCC(=O)Nc2ccc(F)c(F)c2)CC1	inactive	
CCOc1ccc(OCC)c(NC(=O)Nc2ccc3c(c2)N(C)C(=O)CS3)c1	inconclusive: 6.31 µM [quencher, side channel, single point]	
CN(CCO)c1cc(N2CCN(C(=O)c3ccco3)CC2)c2nonc2c1[N+](=O)[O-]	inconclusive: 12.6 µM [quencher, side channel, partial curve]	
CCCc1ccc(/C=C2\C(=O)c3ccccc3C(O)=C2C(=O)OCC)cc1	inconclusive: 0.794 µM [quencher, side channel, full curve]	
Cn1c2ccccc2c2nnc(SCC(=O)Nc3cccc(C(=O)O)c3)nc21	inconclusive: 14.1 µM [quencher, partial curve]	
Cc1nn(CC(=O)N2CCN(c3cccc(C(F)(F)F)c3)CC2)c(=O)c2cccn12	inactive	
O=C(Nc1ccc(NC(=O)c2cccs2)c(Cl)c1)c1ccco1	inactive	
COCC(=O)N(C)c1nnc(-c2cnccn2)s1	inconclusive: 31.6 µM [quencher, side channel, single point]	
Cc1ccccc1NC(=S)N=Nc1c(O)n(C)c2ccc(S(=O)(=O)N3CCOCC3)cc12	inconclusive: 10 µM [quencher, side channel, partial curve]	
COc1ccc(CC(=O)N/N=C/c2ccc(-c3cccc(C(=O)O)c3)o2)cc1OC	inconclusive: 28.2 µM [quencher, side channel, partial curve]	
COc1ccc(/C=N/NC(=O)COc2cccc3ccccc23)c(C(=O)O)c1OC	inactive	
O=C(O)c1ccccc1Nc1cc(Cl)c2nonc2c1[N+](=O)[O-]	inconclusive: 8.91 µM [quencher, side channel, partial curve]	
COC(=O)N[C@H](CC(C)=O)c1ccccc1	inconclusive: 100 µM [inhibitor, single point]	
COC(=O)/C(=C\C(=O)c1ccc([N+](=O)[O-])cc1)Nc1ccc(OC)cc1	inconclusive: 28.2 µM [quencher, side channel, partial curve]	
O=C(O)c1cccc(N2C(=O)c3cc4cccc(Br)c4cc3C2=O)c1	inconclusive: 11.2 µM [quencher, side channel, partial curve]	
O=C(NCCc1ccccc1)c1ncn[nH]1	inactive	
O=C(N/N=C/C=C\c1cccc([N+](=O)[O-])c1)c1cccnc1	inconclusive: 12.6 µM [quencher, side channel, partial curve]	

SMILES	Potency	activity change, negative = inhibition
O=C(CN(Cc1ccccc1)S(=O)(=O)c1ccccc1)N/N=C/c1ccc([N+](=O)[O-])cc1	inconclusive: 14.1 µM [quencher, side channel, partial curve]	
O=C(Nc1ccccc1Oc1ccccc1)c1cc([N+](=O)[O-])ccc1Cl	inactive	
COc1ccc(CCNC(=S)NC(=O)c2cccc([N+](=O)[O-])c2)cc1OC	inconclusive: 20 µM [quencher, partial curve]	
CCOC(=O)c1ccc(NC(=O)Nc2ccc3c(c2)OCCO3)cc1	inactive	
Cc1nn(C)c(C)c1CN(C)C(=O)c1cc2nc(-c3ccco3)cc(C(F)(F)F)n2n1	inconclusive: 31.6 µM [quencher, side channel, partial curve]	
O=C(c1ccc(Br)s1)N1CCN(C/C=C/c2ccccc2)CC1	inactive	
CC1CCN(CCCNC(=O)c2cn(C)c3ccc(S(=O)(=O)N4CCCC4)cc3c2=O)CC1	inactive	
Clc1ccc(-c2csc3ncnc(NCCN4CCOCC4)c23)cc1	inactive	
CC(=O)NC1=NN(C(C)=O)C(C)(CS(=O)(=O)c2ccc3ccccc3c2)S1 (stereo not given)	inconclusive: 11.2 µM [quencher, side channel, single point]	
O=C(/C=C/c1c(F)cccc1Cl)Nc1ncccn1	inconclusive: 1.12 µM [quencher, side channel, full curve]	
Cc1cc(C)cc(NC(=O)c2cc(S(=O)(=O)N3CCCC3)cn2C)c1	inactive	
CCSc1ccc(-c2nn(-c3ccccc3)cc2/C=C(/C#N)C(=O)NC)cc1	inconclusive: 5.62 µM [fluorescent, side channel, single point]	
COc1ccc(CN2C(=O)c3ccccc3C2=O)cc1C(=O)O	inconclusive: 12.6 µM [quencher, side channel, partial curve]	
CC(C)n1c(O)c(N=NC(=O)CNC(=O)CCc2ccccc2)c2ccccc21	inconclusive: 20 µM [quencher, side channel, partial curve]	
COC(=O)C1(S(=O)(=O)c2cccc3nsnc23)CC1	inconclusive: 14.1 µM [quencher, side channel, partial curve]	
O=C(Nc1cccc(C(F)(F)F)c1)Oc1ccc(Cl)c2cccnc12	inactive	
Cc1c(C)c2ccc(OCC(=O)N[C@@H](Cc3ccccc3)C(=O)O)cc2oc1=O	inactive	
CS(=O)(=O)/C(C#N)=C\c1cnc(S(=O)(=O)c2ccccc2)s1	inconclusive: 15.8 µM [quencher, side channel, partial curve]	
COCCn1c(-c2ccc(Cl)cc2)nc2c(c(=O)c3ccccc3n2C)c1=O	inconclusive: 0.316 µM [fluorescent, side channel, full curve]	
COc1ccc(-c2cc(C(=O)NCc3ccc(Cl)cc3)no2)cc1OC	inactive	
O=C(Nc1cc2c3c(c1)C1CCCC1CN3CC1CCCC21)c1ccccc1 (stereo not given)	inconclusive: 20 µM [quencher, side channel, partial curve]	
O=C(COC(=O)/C=C/c1cccs1)NC1CC1	inconclusive: 20 µM [quencher, side channel, single point]	

SMILES	Potency	activity change, negative = inhibition
COc1cccc(NC(=O)c2cc([N+](=O)[O-])ccc2NCc2cccnc2)c1	inconclusive: 17.8 µM [quencher, side channel, partial curve]	
CCOc1cc(NC(=S)NCC2CCCO2)c(OCC)cc1NC(=O)CC (stereo not given)	inactive	
Cc1ccc(-c2nnn(CC(=O)N3CCCCC3)n2)c(-n2cnnn2)c1	inconclusive: 0.398 µM [quencher, side channel, full curve, poor fit]	
CC(NC(=O)/C(C#N)=C/c1ccc(N2CCOCC2)cc1)c1ccccc1 (stereo not given)	inconclusive: 28.2 µM [quencher, side channel, single point]	
CCCCON1C(=O)c2cccc3cccc(c23)C1=O	inconclusive: 15.8 µM [quencher, partial curve]	
CC1(C)CC(=O)C2=C(C1)Nc1ccccc1NC2c1cccs1 (stereo not given)	inactive	
Cc1cc(Br)ccc1NC(=O)CCS(=O)(=O)c1cccc2nonc12	inconclusive: 2.82 µM [quencher, side channel, full curve, poor fit]	
C/[N+]([O-])=C1\Cc2ccccc2C1=O	inconclusive: 11.2 µM [quencher, side channel, partial curve]	
C/C(=N/NC(N)=S)c1ccccc1[N+](=O)[O-]	inconclusive: 15.8 µM [quencher, side channel, single point]	
COc1ccc(C(=O)Nc2cccnc2Cl)cc1OC	inactive	
Cc1ccc(OCc2n[nH]c(=S)n2-c2ccc(Br)cc2)cc1	inconclusive: 35.5 µM [quencher, side channel, single point]	
CC(C)(C)c1ccc(-c2nc(C=O)c3ccccn23)cc1	inconclusive: 12.6 µM [quencher, partial curve]	
COc1ccccc1N1C(=O)CC(Nc2ccc(N3CCOCC3)cc2)C1=O (stereo not given)	inconclusive: 12.6 µM [quencher, side channel, partial curve]	
O=C(c1ccc([N+](=O)[O-])cc1Cl)N1CCN(c2ccccn2)CC1	inconclusive: 8.91 µM [quencher, side channel, partial curve]	
COc1ccc(CN(C)C(=O)c2cc(-c3ccc(C)cc3C)nc3ccccc23)c(OC)c1OC	inactive	
CCOC(=O)C(=CNc1ccc2c(c1)c1ccccc1n2CC)C(=O)OCC	inactive	
COc1ccc(C2CC(c3ccc(OC)cc3)n3nc(NC(=O)c4ccco4)nc3N2)cc1 (stereo not given)	inactive	
COc1ccc(CCNC(=O)C2CCCN2S(=O)(=O)c2cccc3nsnc23)cc1OC (stereo not given)	inconclusive: 14.1 µM [quencher, side channel, partial curve]	
CCCCN1CCc2c1nc1ccc(Br)cc1c2N	inactive	
COc1ccc(N2C(=O)NC3CC2(C)Oc2ccc(Br)cc23)cc1OC (stereo not given)	inactive	
COc1ccc(C(=O)NC(=S)N2CCCC2)cc1	inconclusive: 35.5 µM [quencher, side channel, single point]	

Source: PubChem BioAssay AID2675 (National Center for Advancing Translational Sciences (NCATS), 2010)
